From paper PMC11230635
These are yes or no findings as the source states them, for the method shown. In cells and extracts the contact can be indirect. Some binding calls cover weakened binding; strength is not graded here.

Protein sequences, listed by entry. Tags and fused reporters are not part of them.
UniProt Q8TD16: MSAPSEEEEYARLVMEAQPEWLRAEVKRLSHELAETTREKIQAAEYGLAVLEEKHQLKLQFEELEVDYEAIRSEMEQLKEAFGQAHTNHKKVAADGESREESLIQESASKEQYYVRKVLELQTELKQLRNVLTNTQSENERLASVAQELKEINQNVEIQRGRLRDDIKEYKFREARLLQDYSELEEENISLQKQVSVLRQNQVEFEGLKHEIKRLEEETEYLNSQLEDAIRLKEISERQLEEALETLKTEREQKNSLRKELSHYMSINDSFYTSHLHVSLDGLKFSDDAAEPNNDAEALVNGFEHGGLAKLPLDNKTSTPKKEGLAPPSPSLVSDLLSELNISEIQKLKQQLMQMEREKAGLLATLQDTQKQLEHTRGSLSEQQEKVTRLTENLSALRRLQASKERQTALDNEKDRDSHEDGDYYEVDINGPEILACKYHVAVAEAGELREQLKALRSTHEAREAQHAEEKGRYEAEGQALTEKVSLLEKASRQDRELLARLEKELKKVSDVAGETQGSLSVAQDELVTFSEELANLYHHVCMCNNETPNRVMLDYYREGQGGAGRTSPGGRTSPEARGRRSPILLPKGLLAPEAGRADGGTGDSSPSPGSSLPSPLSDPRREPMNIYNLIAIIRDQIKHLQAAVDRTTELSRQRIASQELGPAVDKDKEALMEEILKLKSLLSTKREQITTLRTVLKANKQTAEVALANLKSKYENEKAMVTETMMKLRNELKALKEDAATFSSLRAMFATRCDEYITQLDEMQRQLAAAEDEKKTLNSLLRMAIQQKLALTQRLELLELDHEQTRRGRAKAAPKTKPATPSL
UniProt Q6ZP65: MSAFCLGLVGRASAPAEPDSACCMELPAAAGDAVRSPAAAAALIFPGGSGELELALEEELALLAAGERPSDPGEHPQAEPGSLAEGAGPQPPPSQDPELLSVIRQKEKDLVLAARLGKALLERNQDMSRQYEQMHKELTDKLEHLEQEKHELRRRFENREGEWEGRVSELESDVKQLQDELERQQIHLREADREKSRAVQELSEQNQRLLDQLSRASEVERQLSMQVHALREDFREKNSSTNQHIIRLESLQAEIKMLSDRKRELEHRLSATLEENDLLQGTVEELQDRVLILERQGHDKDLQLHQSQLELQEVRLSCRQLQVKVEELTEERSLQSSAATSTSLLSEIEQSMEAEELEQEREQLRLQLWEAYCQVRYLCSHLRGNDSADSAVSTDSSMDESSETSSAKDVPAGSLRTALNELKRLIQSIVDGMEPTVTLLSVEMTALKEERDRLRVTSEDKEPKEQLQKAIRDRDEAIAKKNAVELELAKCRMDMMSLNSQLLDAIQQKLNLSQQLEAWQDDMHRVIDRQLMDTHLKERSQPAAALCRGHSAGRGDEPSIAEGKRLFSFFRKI

How the values were obtained:
[1] = target: HPV16 L2 peptide C (amino acids 434 through 461), biotinylated (human papillomavirus type 16 (HPV16)) (UniProt P03107); experiment: pull-down; biotinylated peptide with whole cell extract of uninfected HeLa cells (untransfected or transfected with HA-BICD2-mCherry or HA-mCherry) in Hepes buffer; streptavidin magnetic beads; blot for BICD2, BICDR1 or the transfected protein; only the target purified
[2] = target: HPV16 L2 peptide M (amino acids 299 through 312), biotinylated (human papillomavirus type 16 (HPV16)) (UniProt P03107); experiment: as above
[3] = target: BICD2 dynein cargo adaptor, endogenous (human (endogenous in HeLa)) (UniProt Q8TD16); experiment: co-IP
[4] = target: BICD2 dynein cargo adaptor, endogenous (human (endogenous in HeLa)) (UniProt Q8TD16); experiment: proximity ligation

## BICD2 dynein cargo adaptor, endogenous (from UniProt Q8TD16 1-824)
[1]
  binding: binds
[2]
  binding: no binding

## BICDR1 dynein cargo adaptor, endogenous (from UniProt Q6ZP65 1-573)
[1]
  binding: binds

## HPV16 L2 capsid protein with a C-terminal 3x-FLAG epitope (L2F), brought into cells by the pseudovirus HPV16.L2F (from UniProt P03107 1-473)
[3]
  binding: binds

## HPV16.L2F pseudovirus particle (capsid proteins L1 and L2F), detected through L1 (from UniProt P03101;P03107) (complex)
[4]
  binding: binds
